Each structure is given as a SMILES string. Among all 46,000 compounds or so, about 60 (0.1%) were called active. Not shown: some 3% with an inconclusive outcome. Calls follow the shape of the dose curve; as a rule, active = well fitted inhibition curve with a large enough effect; inconclusive = small, poorly fitted or top-dose-only effect; inactive = no such curve, though single readings can be large or run the other way. This is one part of the list.

The test in a line: Primary qHTS assay for Inhibitors of ovarian cancer metastasis using an organotypic tumor microenvironment (TME) model. Also: nearly all actives have a fitted effect of over 65% in size.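 As to activity change, negative = inhibition: plate controls were DMSO wells for no effect and tomatine positive control wells for full effect.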 The following applies: SKOV3ip1-GFP adhesion/invasion on 3D omental model, fluorescence; series mostly up to 45.8 µM; activity change, negative = inhibition: at the top concentration. An outline of the steps: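 A 3D layer of primary human omental fibroblasts, mesothelial cells, fibronectin and collagen I, grown 48 hr, received SKOV3ip1-GFP cells in serum-free medium plus compounds at 0.36-46 umol/L. After 2 hr RT and 16 hr 37 C, fixed adherent GFP cells were counted; normalized to DMSO and tomatine.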
For orientation: qHTS replaces the single test concentration by a dilution series.
`CCOc1ccccc1NC(=O)CSc1nc(-c2cccs2)cc(C(F)(F)F)n1`: the compound was classed as inactive.
Turning to `COc1ccc(Cl)cc1NC(=O)c1c(NCc2cccs2)sc2c1CCC(C)C2` (configuration not stated), the “activity change, negative = inhibition” value is inactive: -18.5%.
Still for that read-out and setting: to `Cn1c(=O)nc2n(-c3ccc(Br)cc3)c3cccc(Cl)c3cc-2c1=O` belongs inactive: 9.09%.
Consider `CCCc1noc(-c2ccc(NCc3ccccc3OC)c([N+](=O)[O-])c2)n1`, for which the compound was classed as inactive.
As to `Cc1ccc(C)c(N2CCN(S(=O)(=O)c3ccc(C4CCCCC4)cc3)CC2)c1`, the “activity change, negative = inhibition” value was inactive: 6.7%.
As to `Cc1ccc(Nc2c(-c3cccc(Cl)c3)nc3cccc(C)n23)cc1`, the “activity change, negative = inhibition” value was inactive: 7.75%.
`Cc1ccc(NC(=O)CSc2nc(=O)n(CCN3CCOCC3)c3c2CCC3)cc1Cl`: the “activity change, negative = inhibition” value is inactive: 2.91%.
As to `CCC(=O)N1c2ccccc2CC1C(=O)NCCN1CCN(c2ccccc2F)CC1` (configuration not stated), the call was inactive.
Turning to `CN(C)C1(CNC(=O)COc2cccc(Cl)c2)CCCCC1`, the “activity change, negative = inhibition” value is inactive: -13.1%.
`Cc1ccccc1C(=O)Nc1ccc2nc(SCC(=O)N(C)c3ccccc3)sc2c1`: the “activity change, negative = inhibition” value is inactive: -14.1%.
Turning to `Cc1cccc(Cn2c(SCc3ccc(C(=O)NCc4cccs4)cc3)nc3ccncc32)c1`, the “activity change, negative = inhibition” value was inactive: -3.36%.
Consider `O=C1CCC[C@@H]2[C@H]3CCC[N+]4([O-])CCC[C@@H](CN12)[C@@H]34` (some centres not stated), for which the “activity change, negative = inhibition” value is inactive: -2.7%.
For the compound `Cn1cc(-c2cc3n(n2)CCC(=O)N3CC(=O)NCc2ccccc2)c2ccccc21`, the “activity change, negative = inhibition” value was inactive: 0.0869%.
In the case of `COc1ccc(N(C(=O)c2cc(OC)c(OC)c(OC)c2)S(=O)(=O)c2ccc(C)cc2)cc1`, the “activity change, negative = inhibition” value was inactive: 2.64%.
As for `CC(C)c1ccc(Cc2cnc(NC(=O)c3ccc4c(c3)CC(c3ccccc3)OC4=O)s2)cc1` (configuration not stated), the “activity change, negative = inhibition” value is inactive: -10.2%.
`Cc1cccc(C(=O)NCc2cn3cccc(C)c3n2)c1`: the “activity change, negative = inhibition” value was inactive: 9.79%.
Regarding `O=c1cc(N2CCN(c3ccc(F)cc3)CC2)[nH]c(=O)n1-c1cccc(Br)c1`, the result was inactive.
As for `CCOC(=O)C1CCCN(C(=O)Cn2nc(C)n3c(cc4c(OC)cccc43)c2=O)C1` (configuration not stated), the “activity change, negative = inhibition” value was inactive: -23.9%.
Turning to `CCC(C)n1c(=N)c(C(=O)NC2CCCCC2)cc2c(=O)n3cc(C)ccc3nc21` (configuration not stated), the “activity change, negative = inhibition” value was inactive: 23.7%.
On the same count and under the same terms, as for `COc1ccccc1OC(C)C(=O)N1CCN(CCc2ccccn2)CC1` (configuration not stated), the figure is inactive: -0.612%.
With `CC[C@H](C)NC(=O)CCCc1nnc2n(CCC(C)C)c(=O)c3sccc3n12`, the call was inactive.
Turning to `Cc1ccc(C)c(NC(=O)C(NS(=O)(=O)c2ccc3c(c2)CCC(=O)N3)c2ccccc2)c1` (configuration not stated), the “activity change, negative = inhibition” value is inactive: 3.45%.
Consider `Cc1ccc(CNC(=O)C2CCN(S(=O)(=O)c3c(C)noc3/C=C/c3ccccc3F)CC2)o1`, for which the “activity change, negative = inhibition” value is inactive: -8.03%.
Take `COc1ccc(-c2cn3c(n2)sc2cc(C(=O)NC4CCCCC4)ccc23)cc1`: the compound was called inactive.
The same measure, in the same setting: as for `Cc1ccnc(NC(c2cc(C)ccc2O)c2ccc3cccnc3c2O)c1` (configuration not stated), the entry is “inactive”.
In the case of `COc1cccc(CNC(=O)C2CCCN(S(=O)(=O)c3cn(C)cn3)C2)c1` (configuration not stated), the “activity change, negative = inhibition” value was inactive: 10%.
On the same count and under the same terms, to `Cc1ccc(-n2c(=O)c3cccnc3n2CC(=O)Nc2ccccc2C(F)(F)F)cc1C` belongs inactive: 2.01%; to `CCN(CC)c1ccc(C2C(C(N)=O)=C(C)Nc3nc(SCc4ccccc4)nn32)cc1` (configuration not stated), inactive: 156%; to `O=c1c2ccccc2nc2sc(Nc3cccc(C(F)(F)F)c3)nn12`, inactive: 4.06%.
Take `COCCN1CN=C(NS(=O)(=O)c2ccc(C)cc2)NC1`: the result was inactive.
Regarding `COc1ccc(-c2noc(CCC(=O)Nc3ccccc3Cl)n2)cc1OC`, the “activity change, negative = inhibition” value was inactive: 1.76%.
With `Cc1ccc(N2CC(NC(=O)Cc3ccc(F)cc3)CC2=O)cc1C` (configuration not stated), the “activity change, negative = inhibition” value was inactive: -0.403%.
On to `COc1ccccc1CNC(=O)c1cnn(-c2ccc(F)cc2F)c1C1CCN(C(=O)OC(C)(C)C)CC1`, for which the result was inactive.
Regarding `COc1ccc(/C=C\c2onc(C)c2S(=O)(=O)N2CCC(C(=O)Nc3ccc(C)c(F)c3)CC2)cc1`, the “activity change, negative = inhibition” value was inactive: 4.92%.
For `CCOC(=O)c1nnc2c(-c3ccc(F)cc3)c(C)nn2c1N`, the “activity change, negative = inhibition” value was inactive: 3.06%.
For the compound `Fc1ccc(-c2noc3ncnc(NCc4cccc(Cl)c4)c23)cc1`, the “activity change, negative = inhibition” value is inactive: 3.03%.
With `Cc1cccc(Cc2c(C)nc3nc(SCC(=O)NC4CCCCC4)nn3c2C)c1`, the outcome was inactive.
Regarding `CSc1cccc(NS(=O)(=O)c2ccc3[nH]cc(C(=O)N4CCCCCC4)c(=O)c3c2)c1`, the “activity change, negative = inhibition” value was inactive: 9.42%.
As for `Cc1ccc(-c2onc(C)c2C)cc1S(=O)(=O)NC1CCC(C)CC1` (configuration not stated), the “activity change, negative = inhibition” value is inactive: -4.27%.
In the case of `COc1ccccc1N1CCN(C(=O)c2oc3ccccc3c2N)CC1`, the compound was classed as inactive.
Consider `CCOc1cc(C2CC(=O)Nc3c2c(C)nn3-c2nc(C)cc(C)n2)ccc1O` (configuration not stated), for which the “activity change, negative = inhibition” value is inactive: 0.697%.
As for `COC(=O)c1cccnc1-n1c(=O)c2cccnc2n(CC(=O)Nc2cccc(C(F)(F)F)c2)c1=O`, the “activity change, negative = inhibition” value was inactive: -0.562%.
For `CC1CCN(S(=O)(=O)c2ccc3nc(N4CCN(c5ccccc5F)CC4)ccc3c2)CC1`, the call was inactive.
For `COc1ccc(/C=C(\C#N)c2nc(-c3cc4ccccc4oc3=O)cs2)cc1OC`, the “activity change, negative = inhibition” value is inactive: 0.42%.
On to `COc1ccc2c(c1)Cc1sc(NC(=O)c3cccc(Cl)c3)nc1-2`, for which the “activity change, negative = inhibition” value was inactive: 1.01%.
As for `CC(=O)Nc1nonc1-c1nnc(SCc2cccc(Br)c2)n1C`, the “activity change, negative = inhibition” value was inactive: 2.94%.
For the compound `CCCN(CCC)CCCNC(=O)c1nn(C)c2c1CS(=O)(=O)c1ccccc1-2`, the “activity change, negative = inhibition” value was inactive: 1.76%.
For `CC(C)c1ccc(-c2noc(SCC(=O)N3CCCCC3)n2)cc1`, the “activity change, negative = inhibition” value was inactive: 2.23%.
`CCOc1ccccc1CNC(=O)c1ccc(Cn2c(=O)c3cccn3c3cccnc32)cc1`: the compound was classed as inactive.
As to `O=C(/C=C/c1ccccc1)Nc1cc(-c2nc3ccccc3o2)ccc1Cl`, the “activity change, negative = inhibition” value was inactive: 0.796%.
Take `COc1cc(C)ccc1OCCSc1nnc(-c2cccs2)o1`: the “activity change, negative = inhibition” value was inactive: 5.03%.
On to `COc1ccc(-n2nc(C(=O)NCCc3cccc(C)c3)c3c4ccccc4n(C)c3c2=O)cc1Cl`, for which the “activity change, negative = inhibition” value is inactive: 28.3%.
The same measure, in the same setting: to `CCOC(=O)c1ccc(Nc2cc(-c3ccccc3)nc(C)n2)cc1` belongs inactive: -5.8%.
`Cc1cc(C)cc(N(CC(=O)NCc2ccccc2Cl)S(=O)(=O)c2c(C)noc2C)c1`: the result was inactive.
With `Cc1cccc(-c2nc(SCC(=O)Nc3ccc4c(c3)OCCO4)c(-c3ccccc3)[nH]2)c1`, the “activity change, negative = inhibition” value was inactive: 3.12%.
As for `CCc1nn2c(=O)cc(COC(=O)C(c3ccccc3)c3ccccc3)nc2s1`, the “activity change, negative = inhibition” value is inactive: 220%.
As to `COc1ccc(CNC(=O)Cc2csc3nc(-c4ccc(C)cc4)cn23)cc1`, the “activity change, negative = inhibition” value is inactive: 2.94%.
For the compound `COC(=O)CC1Oc2ccccc2-n2cc(-c3ccc(Cl)cc3)nc21` (configuration not stated), the “activity change, negative = inhibition” value is inactive: -12.1%.
For `Cc1ccccc1C(=O)Nc1nnc(S(=O)(=O)N2CCCCCC2)s1`, the result was inactive.
In the case of `O=C(COc1ccccc1)Nc1ccccc1C(=O)OCc1cc(=O)n2nc(C3CC3)sc2n1`, the “activity change, negative = inhibition” value was inactive: 2.06%.
For the compound `CCOC(=O)Cn1c(=O)n(-c2ccccc2OC)c2nc(-c3ccccc3C)nc(C(N)=O)c21`, the compound was classed as inactive.
As to `Cc1nnc(N2CCN(c3ccccc3F)CC2)c2c1nnn2Cc1ccccc1`, the “activity change, negative = inhibition” value is inactive: 4.04%.

The values above are taken from PubChem BioAssay AID1963576 (National Center for Advancing Translational Sciences (NCATS), 2024).
